Test results taken from PubChem BioAssay AID1963576 (National Center for Advancing Translational Sciences (NCATS), 2024).
Out of some 46,000 compounds screened, about 60 (0.1%) were called active. Inconclusive results (about 3%) are left out. The call rests on the fitted dose curve; in most records, active means well fitted inhibition curve with a large enough effect; inconclusive means small, poorly fitted or top-dose-only effect; inactive means no such curve, though single readings can be large or run the other way. The list shows a part of the results.

Assay: Primary qHTS assay for Inhibitors of ovarian cancer metastasis using an organotypic tumor microenvironment (TME) model. Further: nearly all actives have a fitted effect of over 65% in size.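 On activity change, negative = inhibition: plate controls were DMSO wells for no effect and tomatine positive control wells for full effect.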
Conditions: SKOV3ip1-GFP adhesion/invasion on 3D omental model, fluorescence; series mostly up to 45.8 µM; activity change, negative = inhibition: at the top concentration
How it was run: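 A 3D layer of primary human omental fibroblasts, mesothelial cells, fibronectin and collagen I, grown 48 hr, received SKOV3ip1-GFP cells in serum-free medium plus compounds at 0.36-46 umol/L. After 2 hr RT and 16 hr 37 C, fixed adherent GFP cells were counted; normalized to DMSO and tomatine.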

outcome, inactive:
Cc1oc2ncn(CC(C)C)c(=O)c2c1C(=O)NCCCN1CCC(C)CC1
Cc1ccc(C)c(-c2nnc(NC(=O)c3ccc4c(c3)OCCO4)o2)c1
COc1ccc(CCNC(=O)Cn2c(=O)c3cccn3c3ccc(F)cc32)c(OC)c1
CCOC(=O)c1c(NC(=O)c2cc(CC(C)C)on2)sc(C(C)=O)c1C
Cc1ccc(NC(=O)c2cc3c(=O)n(Cc4ccco4)ccc3nc2C)cc1C
Cc1ccc(OCC(=O)N(Cc2ccco2)Cc2ccco2)cc1C
COc1ccc(C2C(C(=O)Nc3ccccc3OC)=C(C)Nc3c(C(=O)Nc4ccccc4)cnn32)c(OC)c1 (stereo unspecified)
CCOc1cccc(OCCCn2c(-c3ccc(Br)cc3)nc3ccccc3c2=O)c1
COc1ccccc1N1CCN(C(=O)c2cnc(N3CCCCC3)c3ccccc23)CC1
Cc1cnc(=O)[nH]c1SCC(=O)Nc1nc2ccccc2s1
Cc1ccc(Cl)cc1N1CCN(C(=O)c2ccc3nc(N4CCC(C)CC4)sc3c2)CC1
CC(=O)N1c2c(cc(Br)cc2S(=O)(=O)N2CCN(c3ccccc3)CC2)CC1C (stereo unspecified)
CCc1ccc(-n2c(=O)c3c(C)c(C(=O)N(C)C)sc3n(Cc3ccccc3F)c2=O)cc1
Cc1oc(-c2ccccc2Cl)nc1CS(=O)CC(=O)NCc1ccccc1Cl (stereo unspecified)
COC(=O)c1ccc(NC(=O)C(=O)NCCc2csc(-c3ccc(C(F)(F)F)cc3)n2)cc1
Cc1cc(Cl)ccc1OCC(=O)N1CCC(c2nc3ccccc3o2)CC1
Cc1ccc(Cn2ccnc2SCC(=O)Nc2ccccc2C(F)(F)F)cc1
CCCn1c2ccccc2c2cnn(CC(=O)NCc3ccc(OC)cc3)c(=O)c21
O=C1CC(c2cccc(Cl)c2Cl)c2cc3c(cc2N1)OCCO3 (stereo unspecified)
CC(C)C(NS(=O)(=O)c1ccc2c(c1)oc(=O)n2C)C(=O)NCc1ccccc1 (stereo unspecified)

Activity change, negative = inhibition, inactive:
COc1ccc(CCNC(=O)c2cnc3sc(N4CCCCC4)nn3c2=O)cc1OC -1.88%
COc1ccc(-c2cc(C(=O)Oc3cccc(C)c3)c3cc(C)ccc3n2)cc1 22.7%
CC(=O)Nc1ccc(Nc2nc3c(S(=O)(=O)c4cccc(Cl)c4)nnn3c3ccsc23)cc1 -6.26%
CCN(CC)Cc1c(NC(=O)c2ccc(OC)cc2)sc2c1CCCC2 -22.5%
Cc1nc2sc(C(=O)N(C)c3ccccc3)c(NC(=O)c3ccccc3Cl)c2c(C)c1C 12%
CSc1ccc(C2c3c(oc4cc(C)cc(C)c4c3=O)C(=O)N2CCO)cc1 (stereo unspecified) 4.5%
CCCn1c(=O)c2c(nc3n2CCN3c2ccc(C)cc2)n(C)c1=O -1.53%
CC[C@@H](C)[C@@H](C(=O)Nc1ccc(C)cc1)N1Cc2ccccc2C1=O 2.77%
Cc1cc(C(C)Nc2ccccc2)c2nc(N3CCOCC3)cc(=O)n2c1 (stereo unspecified) -11.6%
Cc1ccc(CN(C(=O)COc2ccc(Cl)cc2C)C2CCS(=O)(=O)C2)o1 (stereo unspecified) -14.4%
COc1cn(CC(=O)Nc2ccccc2)c(CN2CCCCC2)cc1=O -5.78%
CC(C)CCNC(=O)CCn1c(=O)c2cccn2c2cccnc21 -0.148%
Cc1ccc(NC(=O)c2c(C)oc3ccc(O)c(CN4CCOCC4)c23)c(C)c1 18.1%
CCOc1ccc(NC(=O)N(Cc2c[nH]c3ccccc23)C2CCCCCC2)cc1 4.99%
CCOc1ccc(-c2cc(-c3nc(-c4ccc(C)cc4)no3)[nH]n2)cc1 2.25%
COc1cccc(CNC(=O)c2ccc(NC(=O)N3CCCCc4ccccc43)cc2)c1OC 8.28%
CC(=O)c1cccc(NC(=O)C(C)n2c(=O)cc(-c3ccccc3)c3c(C)nn(C)c32)c1 (stereo unspecified) -3.6%
CC1(C)[C@H]2CC[C@]3(C)[C@@H](C(=O)C=C4[C@@H]5C[C@@](C)(C(=O)O)CC[C@]5(C)CC[C@]43C)[C@@]2(C)CC[C@@H]1O 17.7%
COc1cccc(CNC(=O)c2c(C)oc3nc(C)nc(N4CCOCC4)c23)c1 8.78%
CCOC(=O)C1CCN(C(=O)CSc2n[nH]c(-c3ccc(F)cc3)n2)CC1 -7.39%
O=C(Cn1c(=O)oc2cc(S(=O)(=O)N3CCCC3)ccc21)NCc1ccc(F)cc1 20.4%
CCc1cccc(C)c1NS(=O)(=O)c1c(C)nc2sccn2c1=O 23.3%
O=C(O)CCCCCC(=O)NN=C1CCCC1 -8.17%
COC(=O)CSc1ncc2c(n1)-c1ccccc1N(Cc1cccc(F)c1)S2(=O)=O 2.14%
CCN1C(=O)c2ccccc2S(=O)(=O)c2ccc(C(=O)NCc3ccccc3Cl)cc21 8.13%
O=C(Cn1ccc2cc(S(=O)(=O)N3CCCCCC3)ccc21)NCCc1ccc(Cl)cc1 2.76%
O=C(NC1CCCCCC1)C1c2ccccc2C(=O)N1Cc1ccccc1Cl (stereo unspecified) -4.35%
CCN(CC)S(=O)(=O)c1ccc2c(c1)N(CC(=O)N1CCN(c3ccc(Cl)cc3)CC1)C(=O)CO2 -7.82%
CCOC(=O)c1c(-c2ccccc2)csc1NC(=O)c1cc(-c2ccc(C)c(F)c2)on1 0.794%
Cc1cccc(C(=O)Nc2ccc(OCc3cc(=O)n4ccsc4n3)cc2)c1 -6.46%
CC(C)OC(=O)c1cccnc1SCC(=O)Nc1ccc(C(F)(F)F)cc1Cl 6.22%
Cc1ccc(Cl)cc1N1CCN(C(=O)CCCCCn2c(=O)[nH]c3ccccc3c2=O)CC1 8.73%
CCc1ccc(NC(=O)C2CCCN(S(=O)(=O)c3c(C)noc3/C=C/N(C)C)C2)cc1 (stereo unspecified) -1.7%
CCOc1ccccc1-c1nc(SCC(=O)c2ccc(OC)c(Br)c2)n[nH]1 -0.725%
CCN1CCN(C(=O)c2ccc3c(c2)N(Cc2ccccc2F)C(=O)c2ccccc2S3=O)CC1 (stereo unspecified) 3.89%
Cc1ccc(-n2c3c(cc(C(=O)Nc4cccc(Cl)c4)c2=O)C(=O)CC(C)(C)C3)cc1 10.4%
Cc1cc2c(cc3c(SCC(=O)Nc4cccc(Cl)c4C)nnc(C)n32)o1 -4.64%
CCc1ccc(C(=O)NC(Cc2c[nH]c3ccccc23)C(=O)OCC(=O)c2ccc(Br)cc2)cc1 (stereo unspecified) -9.64%
CCOC(=O)c1cnc2ccccc2c1Nc1cccc(OC)c1 6.98%
O=c1c2sccc2n(Cc2cc(=O)n3ccccc3n2)c(=O)n1-c1cccc(C(F)(F)F)c1 -3.56%
Cc1ccc2oc(-c3cccc(NC(=O)c4sc5c([N+](=O)[O-])cccc5c4Cl)c3)nc2c1 1.74%
CCOc1ccc(CCNC(=O)c2c(C)oc3ncn(C)c(=O)c23)cc1 6.57%
O=C(COc1ccc(F)cc1)NCCc1nc2ccccc2[nH]1 3.19%
COc1ccc(/C=C/C(=O)Nc2ccc(Cl)c(Cl)c2)cc1 -14.6%
Cc1cc(-c2ccc(C)c(S(=O)(=O)Nc3cccc(C#N)c3)c2)on1 2.51%
CCOC(=O)c1cc(-c2ccccc2)n(CCC(=O)Nc2nc3c(C)cccc3s2)c1C 6.37%
Cc1ccccc1NS(=O)(=O)c1ccc2[nH]c3c(c2c1)CCCCC3 13%
CC(C)CCOc1ccccc1Cn1c(=O)sc2ccccc21 -2.8%
Cc1ccc(-c2cc3c(N4CCN(c5cc(C)ccc5C)CC4)nccn3n2)cc1 -1.41%
Cn1c(=O)c2sccc2n2c(CCCC(=O)Nc3ccc(Oc4ccc(Cl)cc4)cc3)nnc12 -1.14%
Clc1ccc(C2(c3ccc(-c4cn[nH]c4)cc3)CCNCC2)cc1 -12.8%
CCOc1ccccc1CNC(=O)CCn1ccc2cc(S(=O)(=O)N3CCCCC3)ccc21 2.1%
CCOC(=O)c1ccc(NC(=O)COc2cccc3c(=O)n(C)ccc23)cc1 -3.3%
O=S(=O)(c1ccc(F)cc1)N(Cc1nc(-c2ccccc2)no1)C1CCCCC1 -7.49%
COc1ccc(NC(=O)CN2CCN(CC(=O)Nc3ccccc3F)CC2)cc1OC 7.76%
COc1ccccc1CNC(=O)CSCc1nc(-c2ccc(OC)c(OC)c2)oc1C 3.23%
CCOc1ccc(NC(=O)c2sc3nc4c(cc3c2N)CN(Cc2ccccc2)CC4)cc1 3.97%
Cc1ccc(-n2nc(C(=O)Nc3ccc(Br)cc3C)c(=O)n(C)c2=O)cc1 4.8%
CCOc1ccc(NC(=O)N2CCC(c3ccc(C)cc3)C2)cc1 (stereo unspecified) -4.08%
O=C(COc1ccc(F)cc1)Nc1ccc(C(=O)OCc2cc(=O)n3nc(C4CC4)sc3n2)cc1 -13.6%
COc1ccccc1CNC(=O)C1CCN(S(=O)(=O)c2ccc3[nH]c(=O)ccc3c2)CC1 9.2%
COc1ccc(OC)c(NC(=O)CCn2cccn2)c1 19.5%
CCOc1ccc(NC(=O)Cn2nc(SC)c(S(=O)(=O)c3ccccc3)c2N)cc1 -3.7%
COc1cc(OC)c(NC(=O)Cn2c(SCc3ccccc3F)nc3cccnc32)cc1Cl 6.4%
Cc1ccccc1Cn1nc(C)c(NC(=O)c2cc(CC(C)C)on2)c1C -0.939%
CCc1nn(CC(=O)N2CCN(c3cccc(Cl)c3)CC2)c(=O)c2cc3sccc3n12 -5.55%
Cc1cc(C)nc(NS(=O)(=O)c2ccc(NC(=O)c3nc(SC(C)C)ncc3Cl)cc2)n1 0.451%
Cc1c(Cl)cccc1-n1ncc(C(=O)N2CCC(C)CC2)c1C1CCN(C(=O)OC(C)(C)C)CC1 22.2%
COC1CCC(C(=O)c2ccc3nc4c(cc3c2)CCCO4)CC1 (stereo unspecified) -10.1%
Cc1ccc(NC(=O)C2CCN(S(=O)(=O)c3ccc4c(c3)CCCN4C(=O)C3CCC3)CC2)cc1 1.27%
Cc1oc(-c2ccc(C(=O)NCc3ccccc3F)cc2)nc1COc1ccccc1 1.41%
CC(=O)c1ccc(N2CCN(C(=O)c3cc4c(s3)-c3ccccc3OC4)CC2)cc1 6.84%
CCN(CC)c1ccc(NC(=O)CN2CCN(S(=O)(=O)c3cc(Cl)ccc3OC)CC2)cc1 11.4%
CN(C(=O)C1CCN(c2ncnc3c2nc2n3CCCCC2)CC1)c1ccccc1F 12%
COc1ccc(NC(=O)CSc2nc(-c3ccccc3)[nH]c2-c2ccccc2)cc1OC 5.79%
Cn1cc(C(=O)Nc2ccc(C#N)cc2)c2ccccc2c1=O -3.7%
